PubChem BioAssay AID1347165 (National Center for Advancing Translational Sciences (NCATS), 2019)
Several values for one entry are separate records, joined by “and”; a condition that tells them apart may be missing. Identical values can stand only once. The campaign covered roughly 220,000 compounds. About 5,700 (2.6%) were called active. The inconclusive results got no clear call from the source; some entries with a clear call stand among them for comparison. Calls follow the shape of the dose curve; as a rule, active = well fitted inhibition curve with a large enough effect; inconclusive = small, poorly fitted or top-dose-only effect; inactive = no such curve, though single readings can be large or run the other way. A potency beside an inconclusive call is a rough fit, not a confirmed value.

The molecules below were run against Lysine-specific demethylase 5B (Homo sapiens) (UniProt Q9UGL1) (assay: Primary screen for KDM5B Histone Demethylases FDH-coupled qHTS). Details: FDH-coupled NADH fluorescence (FDH is formaldehyde dehydrogenase); activity change, negative = inhibition: at 57.7 µM (top of the series) unless noted.
Chain of UniProt Q9UGL1 (Q9UGL1 whole entry, looked up, the tested form may be a part): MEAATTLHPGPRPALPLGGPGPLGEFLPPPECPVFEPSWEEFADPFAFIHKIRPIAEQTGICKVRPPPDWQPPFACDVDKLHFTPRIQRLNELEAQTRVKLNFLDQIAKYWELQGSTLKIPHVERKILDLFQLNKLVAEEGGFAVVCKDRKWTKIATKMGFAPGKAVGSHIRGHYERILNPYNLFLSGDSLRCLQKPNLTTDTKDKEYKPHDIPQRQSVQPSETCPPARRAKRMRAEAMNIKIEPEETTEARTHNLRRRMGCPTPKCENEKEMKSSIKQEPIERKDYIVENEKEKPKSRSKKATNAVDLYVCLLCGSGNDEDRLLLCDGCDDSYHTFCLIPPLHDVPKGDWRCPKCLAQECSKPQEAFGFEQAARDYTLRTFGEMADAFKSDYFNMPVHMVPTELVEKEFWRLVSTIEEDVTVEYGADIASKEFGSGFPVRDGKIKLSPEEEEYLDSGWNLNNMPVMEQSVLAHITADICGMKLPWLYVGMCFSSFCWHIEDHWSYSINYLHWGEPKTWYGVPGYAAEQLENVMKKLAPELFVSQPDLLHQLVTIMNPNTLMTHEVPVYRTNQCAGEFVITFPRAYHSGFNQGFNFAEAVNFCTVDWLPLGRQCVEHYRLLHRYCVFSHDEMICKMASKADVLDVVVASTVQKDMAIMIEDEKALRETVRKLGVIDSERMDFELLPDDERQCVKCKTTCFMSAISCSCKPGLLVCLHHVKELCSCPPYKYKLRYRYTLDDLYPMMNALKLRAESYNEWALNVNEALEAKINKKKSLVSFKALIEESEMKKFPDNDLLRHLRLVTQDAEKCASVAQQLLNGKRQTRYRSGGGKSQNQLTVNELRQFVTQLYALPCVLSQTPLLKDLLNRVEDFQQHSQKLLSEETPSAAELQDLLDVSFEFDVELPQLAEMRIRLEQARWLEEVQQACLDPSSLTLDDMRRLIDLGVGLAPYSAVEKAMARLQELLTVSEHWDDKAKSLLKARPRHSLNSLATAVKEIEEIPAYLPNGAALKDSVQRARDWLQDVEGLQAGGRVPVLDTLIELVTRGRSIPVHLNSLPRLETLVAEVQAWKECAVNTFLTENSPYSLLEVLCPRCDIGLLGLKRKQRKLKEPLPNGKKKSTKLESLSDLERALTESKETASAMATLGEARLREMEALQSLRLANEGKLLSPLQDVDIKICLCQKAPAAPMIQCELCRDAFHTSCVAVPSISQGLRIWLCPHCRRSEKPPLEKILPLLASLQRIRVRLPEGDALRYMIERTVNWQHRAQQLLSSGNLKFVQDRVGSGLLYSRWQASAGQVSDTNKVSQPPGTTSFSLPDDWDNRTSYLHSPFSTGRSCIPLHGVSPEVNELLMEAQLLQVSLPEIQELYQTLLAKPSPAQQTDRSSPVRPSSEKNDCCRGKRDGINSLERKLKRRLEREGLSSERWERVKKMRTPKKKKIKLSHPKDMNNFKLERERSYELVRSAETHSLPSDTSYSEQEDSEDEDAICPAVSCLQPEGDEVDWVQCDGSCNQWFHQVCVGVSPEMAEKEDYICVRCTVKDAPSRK
Outline: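 Inhibition is measured as reduced NADH fluorescence generation from FDH coupling to formaldehyde release. Truncated KDM5BΔAP at 200 nM final acts on H3K4me3 peptide (12.5 µM in substrate mix) in pH 7.5 HEPES buffer with Tween-20, 30 min, room temperature.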
Also: nearly all actives have a fitted effect of over 70% in size.
For activity change, negative = inhibition in this document: 0% is about no effect.
Potency is read from the fitted curve at half-maximal effect; tags tell the direction and shape of the fitted curve.

Row | Structure (SMILES) | Potency | activity change, negative = inhibition
1 | COc1ccc(/C=C/CN2CC(=O)N(c3ccccc3C#N)CC2C)cc1 (stereo unspecified) | inconclusive: 17.8 µM [inhibitor, partial curve, poor fit] | –
2 | CC(C)NC(=O)[C@@H]1C[C@@H](NC(=O)c2cnc3c(O)cccn3c2=O)CN1C | active: 35.5 µM | –
3 | COc1ccc(C(=O)NC2CCN(c3cc(-c4ccc(F)cc4)[nH]n3)C2)cc1 (stereo unspecified) | inconclusive: 3.98 µM [inhibitor, partial curve, poor fit] | –
4 | O=C(NCc1c[nH]c2ncccc12)c1cccc2[nH]ccc12 | active: 35.5 µM | –
5 | COc1cccc(Nc2n[nH]nc2C(=O)Nc2ccc(C)cc2Br)c1 | – | inactive: -14.7%
6 | CCN1CCN(CC(=O)c2ccc(C)cc2)CC1 | inconclusive: 17.8 µM [inhibitor, partial curve, poor fit] | –
7 | CCOC(=O)c1c(NC(=O)c2ccc(S(=O)(=O)N3CCCC(C)C3)cc2)sc2c1CCN(C(C)C)C2 (stereo unspecified) | inconclusive: 35.5 µM [inhibitor, partial curve, poor fit] | –
8 | O=C(NCCc1ccccc1)c1cncc(Br)c1 | – | inactive: 25.3%
9 | CNC(=O)[C@@H]1C[C@H](n2cc(C(C)(C)NC(=O)c3cccc(F)c3F)nn2)CN1 | inconclusive: 39.8 µM [inhibitor, single point] | –
10 | CC(=O)c1ccc(NC(=O)COC(=O)COc2ccc(C3SCCCS3)cc2)cc1 | – | inactive: -2.51%
11 | Cc1ccc(-n2nc3n(c2=O)CCN(C(=O)N(C)C)C3)cc1 | inconclusive: 31.6 µM [inhibitor, partial curve] | –
12 | CC1(C)C(=O)N(Cc2ccc(O)cc2)[C@H]2CN(CCCc3ccccc3)C[C@H]2[S+]1(=O)[O-] | – | inactive: -28.1%
13 | CCn1c(SCC(=O)c2ccc(C#N)cc2)nnc1-c1ccccc1C | inconclusive: 35.5 µM [inhibitor, single point] | –
14 | CCOc1ccc(C=O)cc1-c1ccccc1 | – | inactive: -24.9%
15 | Cc1cccc(C(=O)OCc2cc(=O)n3nc(C4CCCCC4)sc3n2)c1 | – | inactive: 14.8%
16 | COc1cc(C=O)ccc1OC(=O)c1cccs1 | inconclusive: 39.8 µM [inhibitor, single point] | –
17 | O=C(OC1CCCCC1)c1cc2ccccc2oc1=O | inconclusive: 35.5 µM [inhibitor, partial curve, poor fit] | –
18 | COc1ccc(-c2nc(CN3CCCC3c3nnc4ccccn34)co2)cc1 (stereo unspecified) | – | inactive: 14.3%
19 | O=C(c1ccsc1)N1CCc2c(nc3cc[nH]n3c2=O)C1 | active: 25.1 µM | –
20 | O=C(Nc1cccc(F)c1)c1cnc2c(c1)N(C(=O)Cc1cccc(C(F)(F)F)c1)CCC2 | inconclusive: 39.8 µM [inhibitor, single point] | –
21 | COc1ccc(C(=O)N(Cc2nc3nc(C)cc(=O)n3[nH]2)c2ccc(C)cc2)cc1 | – | inactive: 4.02%
22 | Cc1cccc(-c2nc3cc(NC(=O)COc4ccccc4F)ccc3o2)c1 | inconclusive: 25.1 µM [inhibitor, partial curve, poor fit] | –

Row | Structure (SMILES) | Potency | activity change, negative = inhibition
23 | CCc1cc(=O)oc2cc(C)cc(OCC(=O)NC3CC3)c12 | inconclusive: 2 µM [inhibitor, full curve, poor fit] | –
24 | COc1ccc(NC(=O)Cn2ccn(-c3ccc(C)c(C)c3)c(=O)c2=O)cc1Cl | inconclusive: 15.8 µM [inhibitor, partial curve, poor fit] | –
25 | CCc1ccc(NC(=O)CN2C(C(=O)OC)=C(c3ccccc3)c3ccccc3S2(=O)=O)cc1 | inconclusive: 15.8 µM [inhibitor, partial curve, poor fit] | –
26 | O=C1OCCCN1CCNc1ccc(-c2nc(-c3ccccc3F)no2)cn1 | active: 28.2 µM | –
27 | COc1ccc2c(c1)CN(C(=O)c1cccc(C#N)c1)CC[C@H]1COC(=O)N21 | inconclusive: 28.2 µM [inhibitor, partial curve] | –
28 | Cc1[nH]c2ccccc2c1CCNC(=S)NC(C)(C)C | – | inactive: -23.8%
29 | COC(=O)N/N=C/c1ccccc1OCC(=O)O | – | inactive: -4.61%
30 | Cc1oc2ncnc(N3CCOCC3)c2c1C(=O)Nc1ccc(Br)cc1F | inconclusive: 12.6 µM [inhibitor, partial curve, poor fit] | –
31 | N=C(N)c1ccc(OCc2ccncc2)cc1 | inconclusive: 2.82 µM [inhibitor, full curve, poor fit] | –
32 | COc1ccc(CN[C@H]2C[C@H]3C(=O)NC[C@@H](CCC(=O)NCc4ccc(F)cc4)N3C2)cc1 | inconclusive: 17.8 µM [inhibitor, single point] | –
33 | CCC(CC)NC(=O)COc1ccccc1NC(C)=O | – | inactive: 21.6%
34 | O=C(Nc1cc(F)cc(F)c1)N1CCCC2(C1)Nc1cccnc1NC2=NC1CCCC1 (stereo unspecified) | active: 14.1 µM | –
35 | Cc1ncc2c(c1CNC(=O)Cc1ccc(C(F)(F)F)cc1)CCNC2 | inconclusive: 17.8 µM [inhibitor, partial curve] | –
36 | O=C(Cn1c(=O)c2cccn2c2ccc(F)cc21)Nc1cccc(F)c1 | inconclusive: 15.8 µM [inhibitor, partial curve, poor fit] | –
37 | CCn1ccc(C(=O)N2CCC3(CC2)NCCc2c3[nH]c3ccccc23)n1 | inconclusive: 20 µM [inhibitor, partial curve, poor fit] | –
38 | CC(C)CC(CNC(=O)Cc1n[nH]c(=O)c2ccccc12)N1CCOCC1 (stereo unspecified) | – | inactive: 8.85%
39 | Cc1ccc(NC(=O)c2oc3ccccc3c2C)cc1C | inconclusive: 39.8 µM [inhibitor, single point] | –
40 | COc1ccccc1CNS(=O)(=O)c1c(C)nc2sc(C)cn2c1=O | inconclusive: 8.91 µM [inhibitor, partial curve, poor fit] | –
41 | O=C(c1cc(-c2csc(-c3ccccc3)n2)c[nH]1)N1CCCC1 | inconclusive: 1.78 µM [inhibitor, partial curve, poor fit] | –
42 | Cc1ccc(CNC(=O)c2ccc(N3Cc4ccccc4Oc4ncccc43)s2)cc1 | inconclusive: 35.5 µM [inhibitor, partial curve, poor fit] | –
43 | O=C(COc1ncnc2ccccc12)Nc1cc(Cl)ccc1Cl | – | inactive: -2.52%
44 | CCCNC(=O)Cc1csc2nc(C)c(-c3cc(C)n(-c4ccc(C(C)C)cc4)n3)c(=O)n12 | active: 28.2 µM | –

Row | Structure (SMILES) | Potency | activity change, negative = inhibition
45 | CCC(=O)Nc1ccc(-c2nc3ncccc3o2)cc1C | inconclusive: 31.6 µM [inhibitor, partial curve, poor fit] | –
46 | COCCNC(=O)CCCn1c(SCc2ccccc2C)nc2c(sc3ccccc32)c1=O | inconclusive: 31.6 µM [inhibitor, partial curve, poor fit] | –
47 | CC(C)(Oc1nn(Cc2cccc(Cl)c2)c2ccccc12)C(=O)N1CCOCC1 | inconclusive: 35.5 µM [inhibitor, single point] | –
48 | COCCNc1ncccc1-c1noc([C@@H]2CCCN2Cc2ccccc2OC)n1 | inconclusive: 35.5 µM [inhibitor, partial curve, poor fit] | –
49 | CNC(=O)[C@H]1C[C@H](Oc2cccnc2)CN1C(=O)Nc1ccc2c(c1)OCCO2 | inconclusive: 10 µM [inhibitor, partial curve] | –
50 | Cc1ccc(CNC(=O)Cn2ccn(-c3ccc(F)c(F)c3)c(=O)c2=O)cc1 | inconclusive: 39.8 µM [inhibitor, single point] | –
51 | NC(=O)COC[C@@H]1CN(C2CCSCC2)C[C@H]1c1ccncc1 | inconclusive: 14.1 µM [inhibitor, partial curve] | –
52 | CCC(Sc1nc2ccncc2[nH]1)C(=O)Nc1cc(C)ccc1C (stereo unspecified) | – | inactive: -11.2%
53 | CCNC(=O)C1CCN(CC(C)C)CC1 | – | inactive: -12.6%
54 | CCCn1c(=N)c(C(=O)NCc2ccco2)cc2c(=O)n3cc(C)ccc3nc21 | inconclusive: 3.55 µM [inhibitor, full curve, poor fit] | –
55 | O=C(Nc1cccc(-c2ccco2)c1)C1CCN(C(=O)NCc2ccco2)CC1 | inconclusive: 12.6 µM [inhibitor, partial curve, poor fit] | –
56 | Cc1ccccc1OCCSc1nc2ccc(NC(=O)c3ccco3)cc2s1 | inconclusive: 35.5 µM [inhibitor, partial curve, poor fit] | –
57 | c1cc2nc(C3CCCCN3)[nH]c2cn1 (stereo unspecified) | inconclusive: 28.2 µM [inhibitor, full curve] and inconclusive: 44.7 µM [inhibitor, partial curve, poor fit] | –
58 | Nc1ncccc1CN1CC(COc2ccccc2)C2(C1)CN(c1ccccc1)C2 (stereo unspecified) | inconclusive: 31.6 µM [inhibitor, single point] | –
59 | Cc1cc(C(=O)N(C)C2CCc3nnc(C)n3CC2)c(C)n1Cc1ccco1 (stereo unspecified) | inconclusive: 22.4 µM [inhibitor, single point] | –
60 | CCC(=O)N1CCc2cc(S(=O)(=O)NCCC(=O)Nc3ccc(C)cc3C)ccc21 | inconclusive: 25.1 µM [inhibitor, single point] | –
61 | COc1cccc(NC(=O)Cc2cnc(-n3cccc3)s2)c1 | – | inactive: -1.77%
62 | Cc1ccc2c(c1)c1c(c(=O)n(-c3cccc(Cl)c3)c(=O)n1CC(N)=O)n2C | inconclusive: 1.41 µM [inhibitor, full curve, poor fit] | –
63 | Cc1cc(C(=O)N[C@@H]2CN(c3ccncn3)C[C@H]2CN(C)C)no1 | – | inactive: 12%
64 | CC(C)c1ncncc1C(=O)NCCNc1cnccn1 | inconclusive: 25.1 µM [inhibitor, partial curve, poor fit] | –
65 | Cc1oc(-c2nc(C#N)c(NC(C)c3ccccc3)o2)cc1S(=O)(=O)N(C)C (stereo unspecified) | inconclusive: 25.1 µM [inhibitor, partial curve, poor fit] | –
66 | CCN1c2cc(C(=O)NCc3ccc(C)cc3)ccc2C(=O)N2CCCCCC21 (stereo unspecified) | inconclusive: 28.2 µM [inhibitor, partial curve, poor fit] | –
